T1: Mouse GLP-1R (mouse, UniProt O35659 22-463)
T1 sequence (looked up): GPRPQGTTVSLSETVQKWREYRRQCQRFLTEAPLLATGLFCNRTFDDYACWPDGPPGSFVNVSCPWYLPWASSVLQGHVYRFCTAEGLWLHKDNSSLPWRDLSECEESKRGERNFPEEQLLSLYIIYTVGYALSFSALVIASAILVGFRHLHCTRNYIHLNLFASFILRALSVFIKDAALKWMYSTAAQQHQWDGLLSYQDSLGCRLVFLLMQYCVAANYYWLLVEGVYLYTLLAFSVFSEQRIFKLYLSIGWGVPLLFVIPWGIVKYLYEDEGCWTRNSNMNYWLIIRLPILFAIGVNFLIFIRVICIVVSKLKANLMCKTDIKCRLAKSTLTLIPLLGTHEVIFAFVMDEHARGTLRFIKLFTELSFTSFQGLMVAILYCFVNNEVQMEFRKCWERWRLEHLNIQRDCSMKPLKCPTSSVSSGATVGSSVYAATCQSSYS


Assays:
Test in all cases: cell-based or functional assay
[1] = target: human glucagon-like peptide-1 (GLP-1) receptor (human, UniProt P43220)
Monkey GLP-1R = Monkey GLP-1R (monkey)
Mouse GLP-1R = target: T1, Mouse GLP-1R
[2] = target: T2, human FGFR1c together with human beta-Klotho (KLB) (human, UniProt P11362; Q86Z14)
[3] = target: T2, human FGFR1c together with human …; remark: listed apart in the source

Binder | HTRF cAMP EC50 [1] [pM] | HTRF cAMP EC50 (Monkey GLP-1R) [pM] | HTRF cAMP EC50 (Mouse GLP-1R) [pM] | pERK ICW EC50 [2] [nmol/L] | pFGFR ICW EC50 [3] [nmol/L]
GLP-1RA/FGF21 Fc fusion protein SEQ ID NO: 88 (Fc fusion) HGEGTFTSDLSILLDEEAVREFIEWLLATGPSSGAPPPSGGGGGGGSGGGGSGGGGSA[… human IgG4 Fc with changes …]GGGSGSAHPIPDSSPLLQFGGQVRQRYLYTDDACQTEAHLEIREDGTVGGAADQSPESLLQLKALKPGVIQILGVKTSRFLCQRPDGALYGSLHFDPEACSFRELLLEDGYNVYQSEAHGLPLHLPGCKSPHRDPAPRGPARFLPLPGLPPAPPEPPGILAPQPPDVGSSDPLSMVGSQGRSPSYAS | 33 | – | – | – | –
GLP-1RA/FGF21 Fc fusion protein SEQ ID NO: 21 (Fc fusion) HGEGTFTSDLSIQLEEEAVQEFIEWLLATGPSSGAPPPSGGGGGGGSGGGGSGGGGSA[… human IgG4 Fc with changes …]GGGSGSAHPIPDSSPLLQFGGQVRQRYLYTDDACQTEAHLEIREDGTVGGAADQSPESLLQLKALKPGVIQILGVKTSRFLCQRPDGALYGSLHFDPEACSFRELLLEDGYNVYQSEAHGLPLHLCGNKSPHRDPAPRGPARFLPLPGLPPAPPEPPGILAPQPPDVGSSDPLSMVGSQGRSPSYAS | 93.8 | 78.7 | 4.19 | – | –
GLP-1RA/FGF21 Fc fusion protein SEQ ID NO: 95 (Fc fusion) HGEGTFTSDLSILLEEEAVREFIEWLLATGPSSGAPPPSGGGGGGGSGGGGSGGGGSA[… human IgG4 Fc with changes …]GGGSGSAHPIPDSSPLLQFGGQVRQRYLYTDDACQTEAHLEIREDGTVGGAADQSPESLLQLKALKPGVIQILGVKTSRFLCQRPDGALYGSLHFDPEACSFRELLLEDGYNVYQSEAHGLPLHLPGCKSPHRDPAPRGPARFLPLPGLPPAPPEPPGILAPQPPDVGSSDPLSMVGSQGRSPSYAS | 18.5 | – | – | – | –
GLP-1RA/FGF21 Fc fusion protein SEQ ID NO: 90 (Fc fusion) HGEGTFTSDLSILLDEEAVQLFIEWLLATGPSSGAPPPSGGGGGGGSGGGGSGGGGSA[… human IgG4 Fc with changes …]GGGSGSAHPIPDSSPLLQFGGQVRQRYLYTDDACQTEAHLEIREDGTVGGAADQSPESLLQLKALKPGVIQILGVKTSRFLCQRPDGALYGSLHFDPEACSFRELLLEDGYNVYQSEAHGLPLHLPGCKSPHRDPAPRGPARFLPLPGLPPAPPEPPGILAPQPPDVGSSDPLSMVGSQGRSPSYAS | 336 | – | – | – | –
GLP-1RA/FGF21 Fc fusion protein SEQ ID NO: 96 (Fc fusion) HGEGTFTSDLSILLEEEAVRLFIEWLLATGPSSGAPPPSGGGGGGGSGGGGSGGGGSA[… human IgG4 Fc with changes …]GGGSGSAHPIPDSSPLLQFGGQVRQRYLYTDDACQTEAHLEIREDGTVGGAADQSPESLLQLKALKPGVIQILGVKTSRFLCQRPDGALYGSLHFDPEACSFRELLLEDGYNVYQSEAHGLPLHLPGCKSPHRDPAPRGPARFLPLPGLPPAPPEPPGILAPQPPDVGSSDPLSMVGSQGRSPSYAS | 44 | – | – | – | –
GLP-1RA/FGF21 Fc fusion protein SEQ ID NO: 4 (Fc fusion) HGEGTFTSDLSKQLEEERVQLFIEWLKATGPSSGAPPPSGGGGGGGSGGGGSGGGGSA[… human IgG4 Fc with changes …]GGGSGSAHPIPDSSPLLQFGGQVRQRYLYTDDACQTEAHLEIREDGTVGGAADQSPESLLQLKALKPGVIQILGVKTSRFLCQRPDGALYGSLHFDPEACSFRELLLEDGYNVYQSEAHGLPLHLPGCKSPHRDPAPRGPARFLPLPGLPPAPPEPPGILAPQPPDVGSSDPLSMVGSQGRSPSYAS | 313 | 262 | 5.29 | – | –
GLP-1RA/FGF21 Fc fusion protein SEQ ID NO: 174 (Fc fusion) HGEGTFTSDLSKQLAKRLVREFIEWLIEGGPSSGAPPPSGGGGGGGSGGGGSGGGGSA[… human IgG4 Fc with changes …]GGGSGSAHPIPDSSPLLQFGGQVRQRYLYTDDACQTEAHLEIREDGTVGGAADQSPESLLQLKALKPGVIQILGVKTSRFLCQRPDGALYGSLHFDPEACSFRELLLEDGYNVYQSEAHGLPLHLPGCKSPHRDPAPRGPARFLPLPGLPPAPPEPPGILAPQPPDVGSSDPLSMVGSQGRSPSYAS | 77 | – | – | – | –
GLP-1RA/FGF21 Fc fusion protein SEQ ID NO: 89 (Fc fusion) HGEGTFTSDLSILLDEEAVRLFIEWLLATGPSSGAPPPSGGGGGGGSGGGGSGGGGSA[… human IgG4 Fc with changes …]GGGSGSAHPIPDSSPLLQFGGQVRQRYLYTDDACQTEAHLEIREDGTVGGAADQSPESLLQLKALKPGVIQILGVKTSRFLCQRPDGALYGSLHFDPEACSFRELLLEDGYNVYQSEAHGLPLHLPGCKSPHRDPAPRGPARFLPLPGLPPAPPEPPGILAPQPPDVGSSDPLSMVGSQGRSPSYAS | 45.3 | – | – | – | –
GLP-1RA/FGF21 Fc fusion protein SEQ ID NO: 18 (Fc fusion) HGEGTFTSDLSKQLEEERVQEFIEWLKAGGPSSGAPPPSGGGGGGGSGGGGSGGGGSA[… human IgG4 Fc with changes …]GGGSGSAHPIPDSSPLLQFGGQVRQRYLYTDDACQTEAHLEIREDGTVGGAADQSPESLLQLKALKPGVIQILGVKTSRFLCQRPDGALYGSLHFDPEACSFRELLLEDGYNVYQSEAHGLPLHLCGNKSPHRDPAPRGPARFLPLPGLPPAPPEPPGILAPQPPDVGSSDPLSMVGSQGRSPSYAS | 9.9 | 10.2 | 2.09 | – | –
GLP-1RA/FGF21 Fc fusion protein SEQ ID NO: 1 (Fc fusion) HGEGTFTSDLSKQLEEERVQLFIEWLKATGPSSGAPPPSGGGGGGGSGGGGSGGGGSA[… human IgG1 Fc with changes …]GGGSGSAHPIPDSSPLLQFGGQVRQRYLYTDDACQTEAHLEIREDGTVGGAADQSPESLLQLKALKPGVIQILGVKTSRFLCQRPDGALYGSLHFDPEACSFRELLLEDGYNVYQSEAHGLPLHLPGCKSPHRDPAPRGPARFLPLPGLPPAPPEPPGILAPQPPDVGSSDPLSMVGSQGRSPSYAS | 219 | 161 | 2.8 | – | –
GLP-1RA/FGF21 Fc fusion protein SEQ ID NO: 40 (Fc fusion) GHGEGTFTSDLSIQLEEEAVRLFIEWLLAGGPSSGAPPPSGGGGGGGSGGGGSGGGGSA[… human IgG1 Fc with changes …]GGGSGSAHPIPDSSPLLQFGGQVRQRYLYTDDACQTEAHLEIREDGTVGGAADQSPESLLQLKALKPGVIQILGVKTSRFLCQRPDGALYGSLHFDPEACSFRELLLEDGYNVYQSEAHGLPLHLPGCKSPHRDPAPRGPARFLPLPGLPPAPPEPPGILAPQPPDVGSSDPLSMVGSQGRSPSYAS | 46.1 | 50.4 | 39 | – | –
GLP-1RA/FGF21 Fc fusion protein SEQ ID NO: 19 (Fc fusion) HGEGTFTSDLSKQLEEERVQEFIEWLKAGGPSSGAPPPSGGGGGGGSGGGGSGGGGSA[… human IgG4 Fc with changes …]GGGSGSAHPIPDSSPLLQFGGQVRQRYLYTDDACQTEAHLEIREDGTVGGAADQSPESLLQLKALKPGVIQILGVKTSRFLCQRPDGALYGSLHFDPEACSFRELLLEDGYNVYQSEAHGLPLHLCGNKSPHRDPAPRGPARFLPLPGLPPAPPEPPGILAPQPPDVGSSDPLSMVYPSQGRSPSYAS | 11.2 | 10.9 | 2.16 | 43.8 | 34.3
GLP-1RA/FGF21 Fc fusion protein SEQ ID NO: 22 (Fc fusion) HGEGTFTSDLSIQLEEEAVQEFIEWLLATGPSSGAPPPSGGGGGGGSGGGGSGGGGSA[… human IgG4 Fc with changes …]GGGSGSAHPIPDSSPLLQFGGQVRQRYLYTDDACQTEAHLEIREDGTVGGAADQSPESLLQLKALKPGVIQILGVKTSRFLCQRPDGALYGSLHFDPEACSFRELLLEDGYNVYQSEAHGLPLHLCGNKSPHRDPAPRGPARFLPLPGLPPAPPEPPGILAPQPPDVGSSDPLSMVYPSQGRSPSYAS | 85.6 | 73.9 | 3.88 | – | –
GLP-1RA/FGF21 Fc fusion protein SEQ ID NO: 2 (Fc fusion) HGEGTFTSDLSKQLEEERVQLFIEWLKATGPSSGAPPPSGGGGGGGSGGGGSGGGGSA[… human IgG1 Fc with changes …]GGGSGSAHPIPDSSPLLQFGGQVRQRYLYTDDACQTEAHLEIREDGTVGGAADQSPESLLQLKALKPGVIQILGVKTSRFLCQRPDGALYGSLHFDPEACSFRELLLEDGYNVYQSEAHGLPLHLPGCKSPHRDPAPRGPARFLPLPGLPPAPPEPPGILAPQPPDVGSSDPLSMVYPSQGRSPSYAS | 194 | 164 | 2.93 | – | –
GLP-1RA/FGF21 Fc fusion protein SEQ ID NO: 6 (Fc fusion) HGEGTFTSDLSKQLEEERVQLFIEWLKATGPSSGAPPPSGGGGGGGSGGGGSGGGGSA[… human IgG4 Fc with changes …]GGGSGSAHPIPDSSPLLQFGGQVRQRYLYTDDACQTEAHLEIREDGTVGGAADQSPESLLQLKALKPGVIQILGVKTSRFLCQRPDGALYGSLHFDPEACSFRELLLEDGYNVYQSEAHGLPLHLPGCKSPHRDPAPRGPARFLPLPGLPPAPPEPPGILAPQPPDVGSSDPLSMVYPSQGRSPSYAS | 383 | 347 | 6.45 | – | –
GLP-1RA/FGF21 Fc fusion protein SEQ ID NO: 171 (Fc fusion) HGEGTFTSDKSKQLAKRLVRLFIEWLIKGGPSSGAPPPSGGGGGGGSGGGGSGGGGSA[… human IgG4 Fc with changes …]GGGSGSAHPIPDSSPLLQFGGQVRQRYLYTDDACQTEAHLEIREDGTVGGAADQSPESLLQLKALKPGVIQILGVKTSRFLCQRPDGALYGSLHFDPEACSFRELLLEDGYNVYQSEAHGLPLHLPGCKSPHRDPAPRGPARFLPLPGLPPAPPEPPGILAPQPPDVGSSDPLSMVGSQGRSPSYAS | 266 | – | – | – | –
